Experimental findings from the supplement of paper PMC3334620 are described below.

In all, about 33,000 sequences were measured (“E-score (-0.5 to 0.5)”: median about -0.011, highest 2% from about 0.28 on). This is one part of the list.

The assay addresses T1, Gcr1 (UniProt P07261).
T1 sequence: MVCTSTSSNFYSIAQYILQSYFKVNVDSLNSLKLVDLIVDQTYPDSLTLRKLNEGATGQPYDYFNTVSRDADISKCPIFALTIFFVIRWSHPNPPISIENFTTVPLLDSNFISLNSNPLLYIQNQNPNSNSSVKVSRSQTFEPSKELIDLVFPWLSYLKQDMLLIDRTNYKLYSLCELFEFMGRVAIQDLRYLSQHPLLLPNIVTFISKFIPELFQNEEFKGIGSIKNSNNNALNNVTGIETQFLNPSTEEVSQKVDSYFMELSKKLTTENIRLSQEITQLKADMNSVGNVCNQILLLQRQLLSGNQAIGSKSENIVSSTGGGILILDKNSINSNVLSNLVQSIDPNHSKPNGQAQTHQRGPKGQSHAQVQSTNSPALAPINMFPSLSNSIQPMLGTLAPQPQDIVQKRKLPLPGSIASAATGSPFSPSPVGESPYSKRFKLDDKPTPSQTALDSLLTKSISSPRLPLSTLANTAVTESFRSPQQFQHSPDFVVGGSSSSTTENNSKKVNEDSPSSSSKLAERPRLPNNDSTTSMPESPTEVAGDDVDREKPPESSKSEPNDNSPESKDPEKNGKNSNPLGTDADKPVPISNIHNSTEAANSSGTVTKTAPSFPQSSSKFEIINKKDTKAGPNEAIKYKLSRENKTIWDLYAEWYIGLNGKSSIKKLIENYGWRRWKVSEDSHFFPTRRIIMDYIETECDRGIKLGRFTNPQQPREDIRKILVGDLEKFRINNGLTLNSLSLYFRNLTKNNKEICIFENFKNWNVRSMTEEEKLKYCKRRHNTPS
Description: PBM E-score (8-mer binding enrichment) (E-score (-0.5 to 0.5)); higher = stronger / more preferred TF binding; most listed sequences are background and not binding sites. To be noted: protein concentration: 100 nM; construct: GST-full length. A digest of the protocol:
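Yeast transcription factors, full-length or as DNA-binding domains, were expressed with a GST tag using PURExpress in vitro transcription/translation. At about 100-200 nM they were applied to universal all-10-mer Agilent arrays, double-stranded by primer extension on fresh or once-stripped slides. Fluorescent anti-GST detected bound protein, and masliner normalised the scans. E-scores for ungapped eight-base words, pooled with reverse complements, came from the Universal PBM Analysis Suite.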
For TGCCGAAA, the “PBM E-score” value was 0.0514.
As for CCGCTATA, the “PBM E-score” value was determined as 0.119.
As for AATCACCG, the “PBM E-score” value is -0.0362.
With AGAGGTTA, the “PBM E-score” value stood at 0.0121.
On to GTACTCAA, for which the “PBM E-score” value amounted to 0.0758.
Turning to ACGTGGGA, the “PBM E-score” value is -0.0793.
Next, AATTCGAT: -0.0107.
On to AGGCTATC, for which the “PBM E-score” value is -0.243.
In the case of GTAGGCGA, the “PBM E-score” value is -0.0399.
As to AAACCGTT, the “PBM E-score” value was -0.228.
Next, AGCAGCTG: 0.311; CGAGAGTA: -0.121; AGTATAAG: -0.0218.
Turning to CGACAGTC, the “PBM E-score” value was -0.234.
As for CCAGAGAG, the “PBM E-score” value turned out to be 0.00106.
As to CGCTGGCC, the “PBM E-score” value was -0.13.
Consider GTAGCCAA, for which the “PBM E-score” value stood at 0.146.
In the case of AAGACCAC, the “PBM E-score” value was -0.123.
Consider CTCATTGA, for which the “PBM E-score” value is -0.052.
As to AACTCGAT, the “PBM E-score” value is -0.143.
As for ACACTCCG, the “PBM E-score” value was -0.12.
As for CAGAGTGA, the “PBM E-score” value was -0.0651.
With AGGATGGC, the “PBM E-score” value is -0.0982.
Next, ATAAGATA: 0.155; CAGTGTGC: -0.0936.
For CAGTTGCC, the “PBM E-score” value is 0.0724.
As for AAATGGGT, the “PBM E-score” value was 0.136.
For the sequence ATTATGGA, the “PBM E-score” value amounted to 0.161.
Take GCACAACC: the “PBM E-score” value was -0.193.
Next, CTGATCTC: -0.125; CAAATCTC: -0.0332.
As for ACCCTACT, the “PBM E-score” value stood at 0.054.
As for AAGGGGCA, the “PBM E-score” value is -0.0333.
Regarding GGGGTTTA, the “PBM E-score” value is -0.117.
For the sequence CTTCCTTA, the “PBM E-score” value was 0.153.
Turning to GATGTTGA, the “PBM E-score” value was determined as 0.114.
Next, CCCTGTGC: 0.0369; CAAGCTGA: -0.139.
Next, ATGCAATG: -0.163; ATCGCTGC: 0.0242; GAGGCATC: 0.0343.
As for CCGGGGGA, the “PBM E-score” value was -0.0656.
With AGACAGGA, the “PBM E-score” value was found to be 0.269.
On to TGCAGCAA, for which the “PBM E-score” value worked out at 0.144.
Next, AGTTTCGG: 0.143; GAAACGCC: -0.193; GCCCGGAA: 0.0517.
For ACGTCCTG, the “PBM E-score” value is -0.0297.
For CAGAATAG, the “PBM E-score” value worked out at 0.18.
As to CTGGGATC, the “PBM E-score” value was 0.249.
As for TAAAGCCA, the “PBM E-score” value is -0.0674.
In the case of AAGGCGCC, the “PBM E-score” value worked out at 0.258.
Consider CCAAGTCC, for which the “PBM E-score” value was 0.0545.
TCATGTCA: the “PBM E-score” value is 0.0214.
For the sequence GAGCCTGC, the “PBM E-score” value is -0.0426.
As to AAACGGAC, the “PBM E-score” value was 0.0362.
On to CTTAAGAA, for which the “PBM E-score” value is 0.209.
On to CTCATTCA, for which the “PBM E-score” value is -0.0405.
Next, CATTATAC: 0.139; CCAGCCTC: -0.026; GCGTTGGA: -0.137.
Next, ATGAGCCC: -0.157; CCTGTCCA: -0.0831.
As for CCAGTGAG, the “PBM E-score” value is -0.0534.
AATCGTCC: the “PBM E-score” value was -0.115.
With TACTCCGA, the “PBM E-score” value is -0.0241.
Next, TACGTCGA: -0.0822; CCACCGCG: -0.0592; ACAAGGCT: -0.134.
CTAACATC: the “PBM E-score” value is -0.094.
With ATCATTGC, the “PBM E-score” value was -0.157.
Turning to ACAACCAC, the “PBM E-score” value came to 0.119.
CCACCGGA: the “PBM E-score” value came to 0.153.
Next, GCGGCGAC: 0.148.
With AGTTGGTG, the “PBM E-score” value was found to be 0.0768.
On to CCTCATAA, for which the “PBM E-score” value turned out to be 0.0248.
ATGGATTA: the “PBM E-score” value is 0.0376.
For the sequence ACATGGCT, the “PBM E-score” value was -0.126.
Next, ATCGCCCA: -0.0335; CTGACGTC: -0.0827.
With AAACGCTC, the “PBM E-score” value was -0.0758.
Regarding CGTAGCAC, the “PBM E-score” value was 0.084.
Next, TCGATGCA: 0.0074; AATTGGGT: 0.138; GAGAGATC: -0.353.
Next, AAATCGAC: -0.16.
